Test results: the supplement of paper PMC12230231
± gives the standard deviation of the averaged measurements. Restriction of a single-cycle SIVsab GFP reporter by TRIM5α v1-loop variants in CRFK cells. Human variants: read share among cells still uninfected after two challenges over input, higher = gained restriction. Rhesus variants: share among infected cells over input, higher = lost restriction. Reporter dose not given per row. No active / inactive call per row; the paper calls a change when both replicates lie above its controls (mean + 2 SD of stop or wild-type variants, or the top frameshift score). Residues outside the varied loop are taken from Swiss-Prot. The paper reads the human single-substitution scores as noise; they and the rhesus combinations repeat poorly (rank correlation 0.3 to 0.4), indel scores repeat only for the top variants, rhesus substitutions well (0.9).

These sequences were tested on SIVsab (simian immunodeficiency virus of sabaeus monkeys), single-cycle GFP reporter, in CRFK cells (assay: enrichment among uninfected cells over input (fold); higher = stronger restriction). Conditions: library: human / rhesus combinations.
Description: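 Pools of CRFK cells expressing variants of the TRIM5α v1 loop were challenged with the single-cycle reporter, sorted by GFP and sequenced; mean of two replicates.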
For “MASGILVNVKEEVTCPICLELLTQPLSLDCGHSFCQACLTANHKKSMLDKGESSCPVCRISYQPENIRPNRHVANIVEKLREVKLSPEGQKVDHCARHGEKLLLFCQEDGKVICWLCERSQEHRGHHTFLTEEVAREYQVKLQAALEMLRQKQQEAEELEADIREEKASWKTQIQYDKTNVLADFEQLRDILDWEESNELQNLEKEEEDILKSLTNSETEMVQQTQSLRELISDLEHRLQGSVMELLQGVDGVIKRTENVTLKKPETFPKNQRRVFRAPDLKGMLEVFRELTDVRRYWVDVTVAPNNISCAVISEDKRQVSSPKPQIIYQARGTLYTFQTLVNFNYCTGILGSQSITSGKHYWEVDVSKKTAWILGVCAGFQPDAMCNIEKNENYQPKYGYWVIGLEEGVKCSAFQDSSFHTPSVPFIVPLSVIICPDRVGVFLDYEACTVSFFNITNHGFLIYKFSHCSFSQPVFPYLNPRKCGVPMTLCSPSS [human TRIM5α, 330-340 = QARGTLYTFQTLV]”, the enrichment was 0.0292 ± 0.0089.
Sequence “MASGILVNVKEEVTCPICLELLTQPLSLDCGHSFCQACLTANHKKSMLDKGESSCPVCRISYQPENIRPNRHVANIVEKLREVKLSPEGQKVDHCARHGEKLLLFCQEDGKVICWLCERSQEHRGHHTFLTEEVAREYQVKLQAALEMLRQKQQEAEELEADIREEKASWKTQIQYDKTNVLADFEQLRDILDWEESNELQNLEKEEEDILKSLTNSETEMVQQTQSLRELISDLEHRLQGSVMELLQGVDGVIKRTENVTLKKPETFPKNQRRVFRAPDLKGMLEVFRELTDVRRYWVDVTVAPNNISCAVISEDKRQVSSPKPQIIYGARGTRFTFPSFTNFNYCTGILGSQSITSGKHYWEVDVSKKTAWILGVCAGFQPDAMCNIEKNENYQPKYGYWVIGLEEGVKCSAFQDSSFHTPSVPFIVPLSVIICPDRVGVFLDYEACTVSFFNITNHGFLIYKFSHCSFSQPVFPYLNPRKCGVPMTLCSPSS [human TRIM5α, 330-340 = GARGTRFTFPSFT]” has an enrichment of 0.227 ± 0.013.
“MASGILVNVKEEVTCPICLELLTQPLSLDCGHSFCQACLTANHKKSMLDKGESSCPVCRISYQPENIRPNRHVANIVEKLREVKLSPEGQKVDHCARHGEKLLLFCQEDGKVICWLCERSQEHRGHHTFLTEEVAREYQVKLQAALEMLRQKQQEAEELEADIREEKASWKTQIQYDKTNVLADFEQLRDILDWEESNELQNLEKEEEDILKSLTNSETEMVQQTQSLRELISDLEHRLQGSVMELLQGVDGVIKRTENVTLKKPETFPKNQRRVFRAPDLKGMLEVFRELTDVRRYWVDVTVAPNNISCAVISEDKRQVSSPKPQIIYQAPGTRYTFPTLTNFNYCTGILGSQSITSGKHYWEVDVSKKTAWILGVCAGFQPDAMCNIEKNENYQPKYGYWVIGLEEGVKCSAFQDSSFHTPSVPFIVPLSVIICPDRVGVFLDYEACTVSFFNITNHGFLIYKFSHCSFSQPVFPYLNPRKCGVPMTLCSPSS [human TRIM5α, 330-340 = QAPGTRYTFPTLT]” showed an enrichment of 0.424 ± 0.14.
“MASGILVNVKEEVTCPICLELLTQPLSLDCGHSFCQACLTANHKKSMLDKGESSCPVCRISYQPENIRPNRHVANIVEKLREVKLSPEGQKVDHCARHGEKLLLFCQEDGKVICWLCERSQEHRGHHTFLTEEVAREYQVKLQAALEMLRQKQQEAEELEADIREEKASWKTQIQYDKTNVLADFEQLRDILDWEESNELQNLEKEEEDILKSLTNSETEMVQQTQSLRELISDLEHRLQGSVMELLQGVDGVIKRTENVTLKKPETFPKNQRRVFRAPDLKGMLEVFRELTDVRRYWVDVTVAPNNISCAVISEDKRQVSSPKPQIIYGARGTRFTFPSLVNFNYCTGILGSQSITSGKHYWEVDVSKKTAWILGVCAGFQPDAMCNIEKNENYQPKYGYWVIGLEEGVKCSAFQDSSFHTPSVPFIVPLSVIICPDRVGVFLDYEACTVSFFNITNHGFLIYKFSHCSFSQPVFPYLNPRKCGVPMTLCSPSS [human TRIM5α, 330-340 = GARGTRFTFPSLV]” was tested, and the enrichment was 0.35 ± 0.14.
Work on “MASGILVNVKEEVTCPICLELLTQPLSLDCGHSFCQACLTANHKKSMLDKGESSCPVCRISYQPENIRPNRHVANIVEKLREVKLSPEGQKVDHCARHGEKLLLFCQEDGKVICWLCERSQEHRGHHTFLTEEVAREYQVKLQAALEMLRQKQQEAEELEADIREEKASWKTQIQYDKTNVLADFEQLRDILDWEESNELQNLEKEEEDILKSLTNSETEMVQQTQSLRELISDLEHRLQGSVMELLQGVDGVIKRTENVTLKKPETFPKNQRRVFRAPDLKGMLEVFRELTDVRRYWVDVTVAPNNISCAVISEDKRQVSSPKPQIIYGAPGTRFTFQTFVNFNYCTGILGSQSITSGKHYWEVDVSKKTAWILGVCAGFQPDAMCNIEKNENYQPKYGYWVIGLEEGVKCSAFQDSSFHTPSVPFIVPLSVIICPDRVGVFLDYEACTVSFFNITNHGFLIYKFSHCSFSQPVFPYLNPRKCGVPMTLCSPSS [human TRIM5α, 330-340 = GAPGTRFTFQTFV]” yielded an enrichment of 0.178 ± 0.091.
Sequence “MASGILVNVKEEVTCPICLELLTQPLSLDCGHSFCQACLTANHKKSMLDKGESSCPVCRISYQPENIRPNRHVANIVEKLREVKLSPEGQKVDHCARHGEKLLLFCQEDGKVICWLCERSQEHRGHHTFLTEEVAREYQVKLQAALEMLRQKQQEAEELEADIREEKASWKTQIQYDKTNVLADFEQLRDILDWEESNELQNLEKEEEDILKSLTNSETEMVQQTQSLRELISDLEHRLQGSVMELLQGVDGVIKRTENVTLKKPETFPKNQRRVFRAPDLKGMLEVFRELTDVRRYWVDVTVAPNNISCAVISEDKRQVSSPKPQIIYQARGTLFTFQSFTNFNYCTGILGSQSITSGKHYWEVDVSKKTAWILGVCAGFQPDAMCNIEKNENYQPKYGYWVIGLEEGVKCSAFQDSSFHTPSVPFIVPLSVIICPDRVGVFLDYEACTVSFFNITNHGFLIYKFSHCSFSQPVFPYLNPRKCGVPMTLCSPSS [human TRIM5α, 330-340 = QARGTLFTFQSFT]” has an enrichment of 0.0926 ± 0.079.
In the case of “MASGILVNVKEEVTCPICLELLTQPLSLDCGHSFCQACLTANHKKSMLDKGESSCPVCRISYQPENIRPNRHVANIVEKLREVKLSPEGQKVDHCARHGEKLLLFCQEDGKVICWLCERSQEHRGHHTFLTEEVAREYQVKLQAALEMLRQKQQEAEELEADIREEKASWKTQIQYDKTNVLADFEQLRDILDWEESNELQNLEKEEEDILKSLTNSETEMVQQTQSLRELISDLEHRLQGSVMELLQGVDGVIKRTENVTLKKPETFPKNQRRVFRAPDLKGMLEVFRELTDVRRYWVDVTVAPNNISCAVISEDKRQVSSPKPQIIYQAPGTRFTFQSLTNFNYCTGILGSQSITSGKHYWEVDVSKKTAWILGVCAGFQPDAMCNIEKNENYQPKYGYWVIGLEEGVKCSAFQDSSFHTPSVPFIVPLSVIICPDRVGVFLDYEACTVSFFNITNHGFLIYKFSHCSFSQPVFPYLNPRKCGVPMTLCSPSS [human TRIM5α, 330-340 = QAPGTRFTFQSLT]”, the enrichment is reported as 1.75 ± 0.7.
“MASGILVNVKEEVTCPICLELLTQPLSLDCGHSFCQACLTANHKKSMLDKGESSCPVCRISYQPENIRPNRHVANIVEKLREVKLSPEGQKVDHCARHGEKLLLFCQEDGKVICWLCERSQEHRGHHTFLTEEVAREYQVKLQAALEMLRQKQQEAEELEADIREEKASWKTQIQYDKTNVLADFEQLRDILDWEESNELQNLEKEEEDILKSLTNSETEMVQQTQSLRELISDLEHRLQGSVMELLQGVDGVIKRTENVTLKKPETFPKNQRRVFRAPDLKGMLEVFRELTDVRRYWVDVTVAPNNISCAVISEDKRQVSSPKPQIIYGARGTRYTFQSLVNFNYCTGILGSQSITSGKHYWEVDVSKKTAWILGVCAGFQPDAMCNIEKNENYQPKYGYWVIGLEEGVKCSAFQDSSFHTPSVPFIVPLSVIICPDRVGVFLDYEACTVSFFNITNHGFLIYKFSHCSFSQPVFPYLNPRKCGVPMTLCSPSS [human TRIM5α, 330-340 = GARGTRYTFQSLV]” was tested, and the enrichment was 0.0704 ± 0.018.
“MASGILVNVKEEVTCPICLELLTQPLSLDCGHSFCQACLTANHKKSMLDKGESSCPVCRISYQPENIRPNRHVANIVEKLREVKLSPEGQKVDHCARHGEKLLLFCQEDGKVICWLCERSQEHRGHHTFLTEEVAREYQVKLQAALEMLRQKQQEAEELEADIREEKASWKTQIQYDKTNVLADFEQLRDILDWEESNELQNLEKEEEDILKSLTNSETEMVQQTQSLRELISDLEHRLQGSVMELLQGVDGVIKRTENVTLKKPETFPKNQRRVFRAPDLKGMLEVFRELTDVRRYWVDVTVAPNNISCAVISEDKRQVSSPKPQIIYGARGTLYTFPSLVNFNYCTGILGSQSITSGKHYWEVDVSKKTAWILGVCAGFQPDAMCNIEKNENYQPKYGYWVIGLEEGVKCSAFQDSSFHTPSVPFIVPLSVIICPDRVGVFLDYEACTVSFFNITNHGFLIYKFSHCSFSQPVFPYLNPRKCGVPMTLCSPSS [human TRIM5α, 330-340 = GARGTLYTFPSLV]” gave an enrichment of 0.174 ± 0.1.
“MASGILVNVKEEVTCPICLELLTQPLSLDCGHSFCQACLTANHKKSMLDKGESSCPVCRISYQPENIRPNRHVANIVEKLREVKLSPEGQKVDHCARHGEKLLLFCQEDGKVICWLCERSQEHRGHHTFLTEEVAREYQVKLQAALEMLRQKQQEAEELEADIREEKASWKTQIQYDKTNVLADFEQLRDILDWEESNELQNLEKEEEDILKSLTNSETEMVQQTQSLRELISDLEHRLQGSVMELLQGVDGVIKRTENVTLKKPETFPKNQRRVFRAPDLKGMLEVFRELTDVRRYWVDVTVAPNNISCAVISEDKRQVSSPKPQIIYQAPGTLFPTLVNFNYCTGILGSQSITSGKHYWEVDVSKKTAWILGVCAGFQPDAMCNIEKNENYQPKYGYWVIGLEEGVKCSAFQDSSFHTPSVPFIVPLSVIICPDRVGVFLDYEACTVSFFNITNHGFLIYKFSHCSFSQPVFPYLNPRKCGVPMTLCSPSS [human TRIM5α, 330-340 = QAPGTLFPTLV]” gave an enrichment of 0.00877 ± 0.0069.

Same assay, conditions: library: insertions and deletions
Work on “MASGILVNVKEEVTCPICLELLTQPLSLDCGHSFCQACLTANHKKSMLDKGESSCPVCRISYQPENIRPNRHVANIVEKLREVKLSPEGQKVDHCARHGEKLLLFCQEDGKVICWLCERSQEHRGHHTFLTEEVAREYQVKLQAALEMLRQKQQEAEELEADIREEKASWKTQIQYDKTNVLADFEQLRDILDWEESNELQNLEKEEEDILKSLTNSETEMVQQTQSLRELISDLEHRLQGSVMELLQGVDGVIKRTENVTLKKPETFPKNQRRVFRAPDLKGMLEVFRELTDVRRYWVDVTVAPNNISCAVISEDKRQVSSPKPQIIYGRYQTFVNFNYCTGILGSQSITSGKHYWEVDVSKKTAWILGVCAGFQPDAMCNIEKNENYQPKYGYWVIGLEEGVKCSAFQDSSFHTPSVPFIVPLSVIICPDRVGVFLDYEACTVSFFNITNHGFLIYKFSHCSFSQPVFPYLNPRKCGVPMTLCSPSS [human TRIM5α, 4-codon deletion at 331]” yielded an enrichment of 1.27 ± 0.34.
Sequence “MASGILVNVKEEVTCPICLELLTQPLSLDCGHSFCQACLTANHKKSMLDKGESSCPVCRISYQPENIRPNRHVANIVEKLREVKLSPEGQKVDHCARHGEKLLLFCQEDGKVICWLCERSQEHRGHHTFLTEEVAREYQVKLQAALEMLRQKQQEAEELEADIREEKASWKTQIQYDKTNVLADFEQLRDILDWEESNELQNLEKEEEDILKSLTNSETEMVQQTQSLRELISDLEHRLQGSVMELLQGVDGVIKRTENVTLKKPETFPKNQRRVFRAPDLKGMLEVFRELTDVRRYWVDVTVAPNNISCAVISEDKRQVSSPKPQIIYGARGTRYQTFVNFNYQTFVNFNYCTGILGSQSITSGKHYWEVDVSKKTAWILGVCAGFQPDAMCNIEKNENYQPKYGYWVIGLEEGVKCSAFQDSSFHTPSVPFIVPLSVIICPDRVGVFLDYEACTVSFFNITNHGFLIYKFSHCSFSQPVFPYLNPRKCGVPMTLCSPSS [human TRIM5α, 8-codon duplication at 337]” has an enrichment of 0.787 ± 0.92.
